Assay results: the supplement of paper PMC12632987
In all, about 4,500 sequences were measured (“median log2 fold change of GCK-ALFA target abundance (FLAG IP / Myc IP barcode read proportion)”: median about 0.078, lowest 2% from about -0.6 on). The list shows a part of the results.

B1: GBRAP_11_2936 (protein)
chain: SEEKLKKALELAEKAAKLLDKILEAGKLDPKLAKEARKYIEEAAKLAKKLGLEEVLKDLELAAELVKEILKAGKLDPTKAAAARALVFDAAEELEEELEK
B2: GBRAP_45_5810 (protein)
chain: SEELEKTLKELREALEKALELLEKELKEHPEEFKPILELLEEAKKLLEEDPYSLEAARRIRELLEEALKLALDSEKASAELLELLLEAVNLAAELEELLR
B3: GBRAP_52_6207 (protein)
chain: MEERARELAERLLALMRAGDEEGARALAREIARTWDDEELRVFFEAFVELARKAAPEDHDLVFRLAELLAEELLEEGRDEVLADDFLNAVAAALYENEQA
B4: GBRAP_14_3814 (protein)
chain: KEELIKEIEKILEELKKELVELLGLDEKEVKKLVEKAEKEIKEAILNEENPLEKVEEIMEKLKKEVAELAKKLGEDVAAAARALVTDAEHEILELIEKYK
B5: GBRAP_39_5671 (protein)
chain: EEEEEAEDVVSYLEGVAAKYLYETGKSLEEAYKEAVKILEKYAKEHPELKELLEELIKLAEEKGEEAKLVLIGVAVLIEEGTPDEEIKEYIELAIKYFKS
B6: GBRAP_166_4979 (protein)
chain: DQEERVEELKKYIKEQAEKAKTADYEEKLELLAEVAEKIREAKEEGLSEENFRELVRYTLEEFSKVGIKLSDVFGALSIIAELDEEEVELLLEEEKEVKA
B7: GBRAP_90_7011 (protein)
chain: SATEKKVEELKHREEVELELIDLGVVAARDDEELEYAMEILDEYNAAAATAILAVRELEPIIGKEEAEKFIEKIREAGNDVEKIKKLLKEAYEKAIKIAK
B8: GBRAP_128_3512 (protein)
chain: SMEEAVARARELMRAIGEADEEEARRLTRELVALIDAADDETAEAIADTAIELLPELSREKLEVVADTLEEERPRLSPLKANLVADIAVEALNLAEELEE
B9: GBRAP_160_4868 (protein)
chain: MEKLEKALKIIKEHEEEALEAVEEAPASDRAAIAAAIAGEAIQELIEEGLVSDELEDELMKVVDEMKAELEANADASVEEHKKIIKKAFEKMKKIVKEKM
B10: GBRAP_128_3468 (protein)
chain: STEEAVAYARELMAKIKEADDEEARELAEELAERLKTLTLEEVEAVVEEIEKRLPELSAEKLEILADVLRKALPKLTPEKAALVADVISDALLLAEELEE
B11: GBRAP_96_7093 (protein)
chain: EVEEAKKLIEELKENLDKNKEKAKELAKELSKYSDDVLEEALREVELTPEEVKKILEIFKEISLEEAERFALLIAEVLDSEVSQVALEYLKELEEEEDEE
B12: GBRAP_184_5046 (protein)
chain: EILEETIEVKDLEELKAKMAALREKVANIKGELILHVIAPEFTKEMVEALMKALKEILDEGYVTSVTVGLDGKMSEEVIDLAIELADKAGIKLVLALEEE
B13: GBRAP_160_4579 (protein)
chain: SEKLEKVEKAIKEAAEEVIKEVDKVSKEEVINILEVEFGAVILEALDEGLISYETAEKLLEIVDETVAKLKANPNLTPEEIKELIKEAEEKMIKTLKEDS
B14: GBRAP_52_6154 (protein)
chain: MEERAREYAERFVAAVKAGDEEEARAIMEEIAATLDDEEIALFLEHVAELVAGLSPEDRERVVEAVLEFEDIAEAAGHDPELLSYHTARVAGAAYAALQA
B15: GBRAP_184_5091 (protein)
chain: KTLEALVEAETFEEAKAKLKEVLATAAAQKANLTVLVDLKGLDVEEAIELIKLAGAAKAAGKVPDVTIGFANAFTEEEIDKILKAADEEGVKVVLPIKEE
B16: GBRAP_35_5564 (protein)
chain: DFSKTVAEMMANTIDALTEAVDDMDPAELLTITEQIMRAAKEVIEDIKDDKESLKLLLESLRRLRDAIEARGLDDPNLRAAAAAVEEAIELAEKAIAEAK
B17: GBRAP_160_4680 (protein)
chain: SEKVEEAKEFIDEEFAEVLALHDEMTPEQLAAAVRVAFGEIKLYLEELGLLTDEVEAVIDEEEARIVAYVLAHPDITREEFAALLEEAREEIVEELEKAE
B18: GBRAP_11_2812 (protein)
chain: MPEEQKKALEALREARELARRLIEEEPGNEELLEELLRKLEEALKLVKKHLSEAHKKDAEVALELARLALEDPENRLEYVRNTRAALDTLIANIEEELEE
B19: GBRAP_48_5838 (protein)
chain: SEEKKEKAIEEILEVIKRTAEELEEAKEEGLSEAAFEAILIDAAEEIKEILEKYLGLGEKFAALPLEEQLEIVRKAVEILKEEGEEAARKYIEEVIKELE

biological target: GABARAP, O95166; assay: median log2 fold change of GCK-ALFA target abundance (FLAG IP / Myc IP barcode read proportion) (log2 ratio); each designed protein is fused to an ALFA-tag nanobody in HEK293 cells to bring the named protein to FLAG-tagged glucokinase (GCK); Myc marks an untargeted standard; higher = target protein stabilised (more abundant); settings: target protein: 3xFLAG-MCP-GCK-ALFA reporter; HEK293 landing pad (RPLP)
Outline: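 The readout is target abundance, the per-binder median log2 ratio of FLAG to Myc barcode read proportions. It came from HEK293 landing-pad cells carrying a recombined ALFA-nanobody-fused binder library, induced with 2 μg mL^−1 doxycycline and transfected with a plasmid for a FLAG-tagged target and a Myc-tagged standard. After 48 h, lysates were immunoprecipitated with anti-FLAG and anti-Myc, and circular RNA barcodes were reverse transcribed, amplified and sequenced. Each barcode needed a proportion of at least 10^−7 in both replicates and each binder at least 3 barcodes per replicate, a pseudocount of 10^−6 was added, and the replicates were pooled.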

Chain of GABARAP, O95166 (O95166 whole entry, the tested form may be a part): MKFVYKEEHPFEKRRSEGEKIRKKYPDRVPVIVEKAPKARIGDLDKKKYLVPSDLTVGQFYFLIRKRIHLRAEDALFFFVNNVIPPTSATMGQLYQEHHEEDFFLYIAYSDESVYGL

Binder | median log2 fold change
B1 | -0.0697
B2 | 0.202
B3 | -0.0123
B4 | 0.285
B5 | 0.283
B6 | 0.211
B7 | 0.104
B8 | 0.141
B9 | 0.169
B10 | 0.145
B11 | 0.247
B12 | 0.0197
B13 | -0.0902
B14 | 0.0811
B15 | 0.114
B16 | 0.0486
B17 | -0.163
B18 | 0.237
B19 | 0.0401
